# Laboratory results from publication PMC4336329 (PLoS ONE, 2015).
# Out of some 310,000 compounds screened, about 2,200 (0.71%) showed an effect of 50% or more. Effects have a minus sign here. Some of the results follow.
# Molecular target: human ether-à-go-go-related gene (hERG) potassium channel (human, UniProt Q12809)
# Experiment: primary screen, population patch clamp on CHO cells stably expressing hERG
# Sequence of human ether-à-go-go-related gene (hERG) potassium channel (Q12809 whole entry, looked up): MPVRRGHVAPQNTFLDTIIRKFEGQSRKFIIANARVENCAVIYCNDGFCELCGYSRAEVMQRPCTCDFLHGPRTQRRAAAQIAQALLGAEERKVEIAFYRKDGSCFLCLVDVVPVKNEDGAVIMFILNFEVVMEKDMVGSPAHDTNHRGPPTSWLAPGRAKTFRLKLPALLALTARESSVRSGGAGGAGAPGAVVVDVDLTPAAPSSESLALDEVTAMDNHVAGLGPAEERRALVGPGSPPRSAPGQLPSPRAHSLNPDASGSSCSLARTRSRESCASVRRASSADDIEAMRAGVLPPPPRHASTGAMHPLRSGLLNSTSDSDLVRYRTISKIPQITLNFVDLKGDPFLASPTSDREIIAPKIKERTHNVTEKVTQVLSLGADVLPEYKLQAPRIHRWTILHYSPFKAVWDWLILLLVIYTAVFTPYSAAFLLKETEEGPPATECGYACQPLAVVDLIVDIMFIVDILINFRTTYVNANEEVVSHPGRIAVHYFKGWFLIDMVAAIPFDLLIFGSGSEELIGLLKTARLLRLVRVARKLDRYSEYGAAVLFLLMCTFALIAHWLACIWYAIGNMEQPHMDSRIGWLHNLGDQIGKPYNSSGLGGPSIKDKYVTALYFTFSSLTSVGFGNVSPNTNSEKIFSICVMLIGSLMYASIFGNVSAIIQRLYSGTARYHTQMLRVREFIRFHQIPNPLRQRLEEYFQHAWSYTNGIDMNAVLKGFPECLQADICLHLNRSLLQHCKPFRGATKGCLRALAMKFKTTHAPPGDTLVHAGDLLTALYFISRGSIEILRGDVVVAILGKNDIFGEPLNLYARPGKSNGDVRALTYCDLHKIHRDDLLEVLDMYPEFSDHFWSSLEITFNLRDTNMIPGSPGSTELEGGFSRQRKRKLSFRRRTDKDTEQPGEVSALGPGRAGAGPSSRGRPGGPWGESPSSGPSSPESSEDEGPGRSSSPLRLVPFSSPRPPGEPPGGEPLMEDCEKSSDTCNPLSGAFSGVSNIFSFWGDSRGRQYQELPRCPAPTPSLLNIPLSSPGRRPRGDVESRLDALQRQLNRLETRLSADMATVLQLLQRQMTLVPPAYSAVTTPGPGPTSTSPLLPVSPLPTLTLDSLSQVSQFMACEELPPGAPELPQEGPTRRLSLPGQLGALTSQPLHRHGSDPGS
row,SMILES,"hERG current change (%, negative = inhibition) at 1uM [%]"
1,CCOC(=O)c1cccc(NC(=O)CSc2nnc(CNc3ccc(C)cc3)n2CC)c1,3.06
2,COCCn1c(SCC(=O)NC2CCCCC2C)nnc1-c1ccncc1 (centres unmarked),4.04
3,Cc1cc(C(=O)OCC(=O)Nc2cccc(F)c2)c(C)n1C1CC1,5.04
4,O=C(CNC(=O)c1ccccc1)OC(C(=O)Nc1cc(C(F)(F)F)ccc1Cl)c1ccccc1 (centres unmarked),11.8
5,CCn1cc(C(C)NC(=O)Nc2ccccc2C(=O)OC)c(C)n1 (centres unmarked),8.58
6,CCN(CC)S(=O)(=O)c1ccc(F)c(C(=O)NCCCN2CCOCC2)c1,-0.0198
7,OCc1ccccc1O[C@@H]1O[C@H](CO)[C@@H](O)[C@H](O)[C@H]1O,9.77
8,Cc1n[nH]c(C)c1S(=O)(=O)N1CCc2ccccc2C1,8.95
9,COc1ccc(NC(=O)C2CC(=O)N(CCc3ccc(Cl)cc3)C2)cc1 (centres unmarked),-0.574
10,Cc1ccc(C)c(S(=O)(=O)NC(CC(C)C)C(=O)O)c1 (centres unmarked),3.44
11,CC1(C)CC(CCC(=O)Nc2ccccc2Cl)C(=O)O1 (centres unmarked),7.04
12,COC(=O)Cn1c2ccc(C)cc2c2nc(C)sc21,-1.12
13,CC(=O)SCCC(=O)Nc1ccccc1,10.5
14,Cc1occc1C(=O)NNC(=S)NCC(C)C,6.87
15,Cc1ccc(CNC(=O)C2CCCN2C(=O)Nc2cccc(Cl)c2)cc1 (centres unmarked),9.48
16,Cc1ccc(C)c(NC(=O)CN(C)C(=O)CSC(C)C(=O)Nc2cc(C)on2)c1 (centres unmarked),0.497
17,CCCCN1C(=O)C2NN=C(C(=O)OCC)C2C1=O (centres unmarked),16.2
18,CC(=O)OCC1=C(C(=O)O)N2C(=O)C(NC(=O)c3ccc(COc4c(C)cccc4Cl)o3)C2SC1 (centres unmarked),7.12
19,COc1ccc(-c2[nH]ncc2/C=N/NC(=O)c2ccncc2)c(OC)c1,21.6
20,Cc1ccc(S(=O)(=O)NC(C)C(=O)NC2CC2)cc1 (centres unmarked),14.5
21,CCN(CC)S(=O)(=O)c1ccc(NC2CCN(Cc3ccccc3)CC2)nc1,-13.8
22,CCN(CC)S(=O)(=O)c1cc(NC(=O)C2CC(=O)N(Cc3ccccc3)C2)ccc1Cl (centres unmarked),22.4
23,Cc1cccc(-n2ncc3c(NCCCN4CCCC4=O)ncnc32)c1,1.18

row,SMILES,"hERG current change (%, negative = inhibition) at 1uM [%]"
1,COc1cccc(OC)c1C(=O)NC(=O)Nc1c(C)cccc1C,1.75
2,O=CC1=C(N2CCOCC2)/C(=C/c2ccc(Cl)cc2)CC1,10.5
3,COc1ccc(/C=C2\SC(=O)N(CC(=O)Nc3ccccc3O)C2=O)cc1OC,7.58
4,CCCCN(C(=O)CN1CC(C)OC(C)C1)c1c(N)n(CC(C)C)c(=O)[nH]c1=O (centres unmarked),8.12
5,O=C1COc2ccc(C(=O)CSc3ccccc3C(=O)O)cc2N1,13.5
6,CN1C2CCC1CC(OC(=O)c1c[nH]c3ccccc13)C2 (centres unmarked),-32.2
7,CCOC(=O)c1c(-c2ccccc2)csc1NC(=O)c1ccc(N2C(=O)CCC2=O)cc1,7.34
8,O=S(=O)(Nc1ccc(Cc2ccncc2)cc1)c1ccc(Br)cc1,-2.24
9,Cc1sc2ncn(CC(=O)Nc3ccccc3F)c(=O)c2c1-c1ccccc1,6.13
10,CCOC(=O)C(C)n1nc(/C=C/c2ccccc2)ccc1=O (centres unmarked),14.4
11,CN(c1ccc(OC(=O)c2ccc(-n3cncn3)c([N+](=O)[O-])c2)cc1)S(=O)(=O)c1ccccc1,1.32
12,O=C(CSc1n[nH]c(-c2ccccc2Cl)n1)NC1CCCCC1,13.2
13,CC(C)CC(=O)NC(=S)Nc1cccc(NC(=O)c2ccccc2Cl)c1,8.14
14,CC(C)(C)C(=O)Nc1sc2c(c1C#N)CCC2,16.8
15,CCC1Oc2ccccc2N(CC(=O)NCCN2CCCC2)C1=O (centres unmarked),-4.95
16,Cc1ccn(CCSCC(=O)O)n1,3.9
17,Cc1ccc(C)c(N2CCN(C(=O)c3ccc(Cl)c(NC4=NC5CS(=O)(=O)CC5S4)c3)CC2)c1 (centres unmarked),9.66
18,CCCN1Cc2cccc(C(=O)NC(CC(=O)OCC)c3ccc(OCC)c(OC)c3)c2C1=O (centres unmarked),5.56
19,CCN1CCN(C(=O)C2c3cc(OC)c(OC)cc3C(=O)N(C)C2c2ccc(SC)cc2)CC1 (centres unmarked),6.82
20,CC(=O)OCC(=O)[C@@]1(O)CC[C@H]2[C@@H]3CCC4=CC(=O)C=C[C@]4(C)[C@@]3(F)[C@@H](O)C[C@@]21C,6.06
21,C[C@]12CCC(O)CC1CCC1C2CC[C@]2(C)C(c3cc(C(F)(F)F)n[nH]3)CCC12 (some centres unmarked),15.6
22,CC(=O)N1CCN(CC(=O)Nc2ccc(C)c(F)c2)CC1.Cl,13.1
23,CCOC(=O)c1cnn(C)c1NC(=O)c1ccc([N+](=O)[O-])cc1,7.6

row,SMILES,"hERG current change (%, negative = inhibition) at 1uM [%]"
1,CSc1nnc(-c2cccs2)n1-c1ccccc1,5.08
2,COc1ccc(C)cc1N(CC(=O)O)S(=O)(=O)c1ccc(C)cc1,8.68
3,Cc1c(C)n(CC(O)CN2CCCCCC2)c2ccccc12 (centres unmarked),3.69
4,CC(C)(O)C(=O)N/N=C\c1ccc(OC/C=C/c2ccccc2)cc1,17.3
5,COc1ccc2sc(N(CCCN(C)C)C(=O)c3ccc(S(=O)(=O)N(C)Cc4ccccc4)cc3)nc2c1.Cl,-2.1
6,CCN1CCN(c2nc3ccccc3s2)CC1,-2.14
7,CCn1c(=O)c([N+](=O)[O-])c(NCc2ccco2)c2ccccc21,9.47
8,Cc1cccc(-n2ncc3c2CCCC3NC(=O)CN2CCCC2=O)c1C (centres unmarked),16
9,CC1CCC(NC(=O)c2cccc(S(=O)(=O)NCc3ccccc3)c2)CC1 (centres unmarked),5.73
10,O=C(OCC(=O)N1CCCC1=O)c1nc(Cl)c(Cl)c(Cl)c1Cl,-9.63
11,CCOC(=O)c1c(-c2ccccc2)nc2ccc(Cl)cn12,20.4
12,Cc1ccc(S(=O)(=O)N2CCCCC2)cc1NC(=O)CSc1ncccn1,12.3
13,CN(C)c1oc(-c2ccc(Cl)cc2)nc1S(=O)(=O)c1ccccc1,13.2
14,CN(C)C(=O)C[n+]1ccc(C(N)=O)cc1.[Cl-],9.46
15,O=C(N/N=C1\C2CN3CCN(C2)CC1(c1ccccc1)C3)c1ccc(F)cc1,9.45
16,COc1ccccc1N1CCN(CCCNc2cc(=O)n(C)c(=O)n2C)CC1.Cl,-1.06
17,CCSc1oc(-c2cccs2)nc1S(=O)(=O)c1ccccc1,14.9
18,CCCn1c(N)c(N(CCOC)C(=O)C2CCCC2)c(=O)[nH]c1=O,10.5
19,CNC(=S)N1CCC(Cc2ccccc2)CC1,7.59
20,COc1ccc(CN(C)C(=O)c2cccc(NS(=O)(=O)c3ccccc3)c2)c(OC)c1,8.52
21,CC1c2ccccc2SC(CCCN(C)C)c2ccccc21.O=C(O)/C=C\C(=O)O (centres unmarked),7.95
22,COc1ccc(S(=O)(=O)Nc2cccc(/C=C/C(=O)O)c2)cc1,14.9
23,Cc1ccc(-c2cc(C(F)(F)F)n3ncc(C(=O)N4CCN(C)CC4)c3n2)cc1,0.779

row,SMILES,"hERG current change (%, negative = inhibition) at 1uM [%]"
1,CCCC(CCC(=O)Nc1ccc(S(N)(=O)=O)cc1)C(=O)O (centres unmarked),12.4
2,Cc1ccccc1OCC(=O)OCC(=O)NCc1cccs1,7.32
3,C[C@@H](NC(=O)Cn1ccc(N)nc1=O)c1cccc2ccccc12,11.9
4,Cc1cccc(C)c1NC(=S)N(Cc1ccccc1)Cc1cccnc1,16.2
5,Cc1ccc(C2(C)NC(=O)N(CC(=O)N(C)CC(=O)Nc3cccc4ccccc34)C2=O)cc1 (centres unmarked),9.34
6,CS(=O)(=O)Nc1cccc(C2=NN(C(=O)c3ccco3)C(c3cccs3)C2)c1 (centres unmarked),-13.4
7,CC1=C([N+](=O)[O-])C(c2ccc(Cl)cc2)NC(=O)N1C (centres unmarked),1.93
8,Cc1noc(C)c1COC(=O)c1ccc(-c2nc3ccccc3s2)s1,12.2
9,COc1cc(C2NCCC(=O)C2(C)C)cc(OC)c1OC.Cl (centres unmarked),6.11
10,CCOC(=O)Cc1csc(NC(=O)Nc2cccs2)n1,12
11,O=C(Nc1ncc2c(n1)CC(c1cccc(Cl)c1)CC2=O)c1ccco1 (centres unmarked),-8.8
12,COc1ccc(CNC(=O)Nc2cccc(C(F)(F)F)c2)cc1OC,6.69
13,O=C(CSc1nnc2c(Cl)cc(Cl)cn12)N1CCN(c2ccc(F)cc2)CC1,-18.8
14,Cn1c(-c2ccccc2Br)n[nH]c1=S,8.04
15,NC(=O)Nc1ccc(C(=O)OCC(=O)Nc2ccc(Cl)cn2)cc1,12.4
16,Cc1ccc(OCCn2c(=O)sc3ccccc32)cc1,6.93
17,CC(C)Cn1c(CCC(=O)O)ccc1-c1cccs1,4.54
18,COc1cc(NS(=O)(=O)c2ccc(N/C=C(\C=O)c3nc4cc(Cl)ccc4o3)cc2)nc(OC)n1,1.47
19,CCOC(=O)c1ccc(CN2Cc3ccccc3C2=O)cc1,13
20,N#CC1=C(N)Oc2c(c(=O)oc3ccccc23)C1c1ccc([N+](=O)[O-])o1 (centres unmarked),25.4
